# In the supplement of paper PMC3334620:
# Over roughly 33,000 sequences, “E-score (-0.5 to 0.5)” has its median near -0.021; the highest 2% begin near 0.32. The list shows a part of the results.
# Biological target: T1, Zap1 (UniProt P47043)
# T1 sequence: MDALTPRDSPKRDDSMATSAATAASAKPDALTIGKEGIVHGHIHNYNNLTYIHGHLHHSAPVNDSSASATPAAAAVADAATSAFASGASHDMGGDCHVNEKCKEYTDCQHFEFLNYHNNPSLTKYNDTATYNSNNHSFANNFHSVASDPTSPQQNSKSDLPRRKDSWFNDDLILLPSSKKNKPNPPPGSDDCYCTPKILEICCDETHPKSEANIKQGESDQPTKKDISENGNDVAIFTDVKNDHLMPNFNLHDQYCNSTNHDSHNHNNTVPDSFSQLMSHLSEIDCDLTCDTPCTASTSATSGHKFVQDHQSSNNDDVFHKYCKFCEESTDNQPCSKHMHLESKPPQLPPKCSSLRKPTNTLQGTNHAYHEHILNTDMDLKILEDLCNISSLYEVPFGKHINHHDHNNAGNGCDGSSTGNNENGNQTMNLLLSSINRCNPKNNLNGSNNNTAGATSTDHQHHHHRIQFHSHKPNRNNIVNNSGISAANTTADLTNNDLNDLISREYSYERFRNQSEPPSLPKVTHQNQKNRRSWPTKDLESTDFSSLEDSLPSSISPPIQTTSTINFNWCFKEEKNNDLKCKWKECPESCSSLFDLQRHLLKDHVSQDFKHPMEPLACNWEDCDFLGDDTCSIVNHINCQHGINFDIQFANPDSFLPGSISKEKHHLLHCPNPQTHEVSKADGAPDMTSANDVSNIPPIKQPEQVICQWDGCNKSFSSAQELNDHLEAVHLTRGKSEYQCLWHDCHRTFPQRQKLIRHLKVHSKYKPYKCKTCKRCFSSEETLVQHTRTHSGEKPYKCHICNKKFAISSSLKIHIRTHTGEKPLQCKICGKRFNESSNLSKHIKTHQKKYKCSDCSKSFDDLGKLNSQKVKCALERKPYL
# Assay: PBM E-score (8-mer binding enrichment) (E-score (-0.5 to 0.5)); higher = stronger / more preferred TF binding; most listed sequences are background and not binding sites
# Conditions: protein concentration: 200 nM; construct: GST-full length
# How it was run: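 For each ungapped eight-base word taken together with its reverse complement, the Universal PBM Analysis Suite assigned an E-score. Binding data came from GST-tagged yeast transcription factors, applied at about 100-200 nM, on universal all-10-mer Agilent arrays made double-stranded by primer extension. Fluorescent anti-GST marked bound protein, and scans were normalised with masliner.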
row,Sequence,PBM E-score
1,AAATAAAA,0.0597
2,AGCCAGTA,-0.0664
3,TAGATATA,0.172
4,GCTTACGA,0.0406
5,AAAGAAAA,0.158
6,CGTCTCAA,0.00424
7,ATTCTAAC,0.228
8,GTAATAGA,-0.06
9,AGTATACG,-0.0954
10,AATTTACA,0.0396
11,CCCCTTAC,0.0357
12,ACTACGCC,-0.269
13,CAATAGCA,-0.148
14,ATAACATC,0.0786
15,ACTGGGTC,-0.143
16,TGGCGCCA,-0.128
17,ATGGTATA,0.177
18,GGAAAGAA,0.00738
19,TGCGCCAA,-0.0562
20,CGGGGTCA,0.332
21,CCTGGGAC,-0.25
22,AACAAGTA,0.0972
23,CCCTCCCA,0.105
24,AACCTCTG,0.306
25,GTTCAATA,0.00661

row,Sequence,PBM E-score
1,CTTTCTTA,-0.0292
2,AAGATCCA,-0.0922
3,CTTCCGGA,-0.136
4,GACTCGGC,-0.356
5,AGTACGCG,-0.0604
6,GCGTAATA,-0.0701
7,TATCCCCA,0.0588
8,GAATAGTC,0.0144
9,ATGGGAAA,-0.107
10,CAAAAGTC,-0.0615
11,ATAGCTCC,-0.411
12,CACTCCAA,-0.126
13,GCTATACA,-0.178
14,ACCATAGT,0.178
15,GTGTCTTA,-0.102
16,CGCCATCC,-0.137
17,GTAAACAA,0.139
18,ATACGCGG,-0.0533
19,AGGGACTG,-0.209
20,GCAAAAGA,0.0371
21,ACGATTAG,0.0616
22,GTGTTTAA,0.212
23,ATAGCCCG,-0.237
24,GGGTGAAC,-0.00761
25,CTGTTCGA,-0.0941

row,Sequence,PBM E-score
1,CTAACGAA,0.0353
2,ATTCCTCC,-0.117
3,AAGTGATT,0.128
4,CTGTTGCC,-0.317
5,GACTTTTA,-0.0234
6,ATAGACCG,-0.0134
7,CTTCGCTC,-0.156
8,GAAATCCA,0.0709
9,CTGCCGTC,-0.247
10,CAGCTGGG,-0.154
11,GGTTAATA,0.302
12,AGACTACC,0.13
13,GCATAGCC,-0.229
14,ATCAAACC,0.242
15,CGTGGATA,-0.0309
16,AACGAGTA,0.172
17,GCGGTACA,0.13
18,ACGTTCAG,-0.188
19,AAGCGGTC,0.0193
20,ATCCAGTC,-0.137
21,AGCACACT,-0.204
22,CAATTGTA,-0.0869
23,ATCAGATC,-0.151
24,ACAACCCC,0.321
25,GATGGTAC,0.199

row,Sequence,PBM E-score
1,ATAACGGA,0.0366
2,AGGCTTAT,-0.135
3,ATAGCCTA,-0.0718
4,GCTGCTAA,-0.0685
5,AATACAGG,0.24
6,GTCTTAGA,0.0182
7,CGTGCAAC,0.111
8,AACAGATC,0.0769
9,ACGCGCCC,-0.0682
10,GTTGGCTA,0.0491
11,GGGTTACC,0.463
12,CCAGTCCG,-0.204
13,CCATTATC,0.109
14,TAATCAGA,0.0679
15,CATTTCAC,-0.0644
16,CTCCGCAC,-0.254
17,GCCCTCAC,-0.102
18,CATCTGCC,-0.109
19,CCTGGGGC,-0.284
20,AACTGCTC,-0.117
21,CGCTCTCC,-0.119
22,ACATGAAT,-0.0503
23,CCCCTCCA,-0.00574
24,AGATTCCC,-0.127
25,CTATAACA,-0.0126

row,Sequence,PBM E-score
1,ACGATGGG,-0.169
2,ATTGCAAG,0.0585
3,AGATCACA,-0.0473
4,AGGCAGAA,-0.127
5,CCCGAAAG,0.233
6,CATGTGGC,-0.0501
7,AAGGCTAT,-0.0179
8,AGAGATCC,-0.116
9,CCACTTAC,0.134
10,CTAGCCGC,-0.147
11,GGCGCGCC,0.0298
12,ACTACAAT,0.094
13,GGAAGTTA,0.142
14,ATAACACG,0.0377
15,ATTTCCCA,0.17
16,AGGCATCC,-0.259
17,GGTTCATA,0.0735
18,CCCCCCGG,-0.0499
19,AATCAAAC,0.15
20,GTTGCTAA,0.196
21,CGATCTAC,-0.177
22,CCTGTTAC,0.0992
23,CGAACAGC,-0.193
24,CCCTGTGA,0.17
25,CTGTGAAG,0.0227

row,Sequence,PBM E-score
1,ACCTGATA,0.13
2,CCCGTTCA,-0.0223
3,CTATATAC,0.249
4,CCAACAGG,0.0645
5,AAAGGGGG,-0.385
6,TTGACAAA,0.153
7,GTGGCTAA,0.0596
8,ACAATCGT,-0.176
9,GGTACTAA,0.278
10,ACGATCCC,-0.00345
11,CCAAGCGG,-0.206
12,AGAGCAAG,-0.196
13,ACACGAGT,0.0998
14,GCGGTATA,-0.0994
15,CGTCCATA,0.125
16,GGCCACCA,0.123
17,CGGAATTA,0.08
18,CCTTAGCC,-0.0691
19,TCTAAAGA,0.117
20,ACTCCGGA,0.153
21,CCAGTCAA,-0.0553
22,AACGGATA,0.129
23,AACCTTAT,0.312
24,ACGGGCAC,-0.0743
25,CGCGAGGC,0.0814

row,Sequence,PBM E-score
1,AATAGATC,0.131
2,AATAATGA,0.0602
3,GAAAATGA,-0.00655
4,ATGCGAAT,-0.0864
5,AGACCAAG,0.0881
6,GAATGCAA,0.0208
7,ACCGGTAC,0.256
8,CGATAAGC,-0.211
9,TGGAGGAA,-0.158
10,AGATAGGG,-0.0822
11,CTGCCAAA,0.0278
12,CGATTCTA,-0.199
13,AAGAAGGT,0.269
14,AGTCCACT,-0.213
15,AAAAGTCC,0.0858
16,CTACCGCC,0.103
17,AAGTCATC,0.0259
18,AGAAGGCC,0.0295
19,AAGAACGG,-0.199
20,CCGCCAAA,0.124
21,AACTACAC,0.0497
22,CCACCCAG,0.217
